Measurements taken from the supplement of paper PMC11876631.
± gives the standard deviation of the averaged measurements. Laboratory Escherichia coli strains with one amino-acid change in an essential protein, pooled on minimal glucose agar with carbenicillin or gentamicin at twice the control MIC (plus kanamycin and chloramphenicol for the plasmids), 48 h. Fold change of barcode share against drug-free plates; higher = less susceptible. Active = above 20 in both replicates (the paper's putatively resistant). '<' = one read or none on drug, '>' = one read or none on a drug-free plate. Shares are relative, so most strains fall below 1 when a few take over. Listed are strains with at least 15 reads on both drug-free plates, and hits; most hits rest on fewer reference reads. Replicate rank correlation about 0.5. Edits are read from barcodes.

B1: secE; a variant is named by its letters at X, in order (parent)
chain: MSANTEAQGSGRGLEAMKWXXVXAXLLVAIVGNYLYRDIMLPLRALAVXILIAAAGGVALLTTKGKATVAFAREARTEVRKVIWPTRQETLHTTLIVAAVTAVMSLILWGLDGILVRLVSFITGLRF
B2: parE; numbered along this chain (parent)
chain: MTQTYNADAIEVLTGLEPVRRRPGMYTDTTRPNHLGQEVIDNSVDEALAGHAKRVDVILHADQSLEVIDDGRGMPVDIHPEEGVPAVELILCRLHAGGKFSNKNYQFSGGLHGVGISVVNALSKRVEVNVRRDGQVYNIAFENGEKVQDLQVVGTCGKRNTGTSVHFWPDETFFDSPRFSVSRLTHVLKAKAVLCPGVEITFKDEINNTEQRWCYQDGLNDYLAEAVNGLPTLPEKPFIGNFAGDTEAVDWALLWLPEGGELLTESYVNLIPTMQGGTHVNGLRQGLLDAMREFCEYRNILPRGVKLSAEDIWDRCAYVLSVKMQDPQFAGQTKERLSSRQCAAFVSGVVKDAFILWLNQNVQAAELLAEMAISSAQRRMRAAKKVVRKKLTSGPALPGKLADCTAQDLNRTELFLVEGDSAGGSAKQARDREYQAIMPLKGKILNTWEVSSDEVLASQEVHDISVAIGIDPDSDDLSQLRYGKICILADADSDGLHIATLLCALFVKHFRALVKHGHVYVALPPLYRIDLGKEVYYALTEEEKEGVLEQLKRKKGKPNVQRFKGLGEMNPMQLRETTLDPNTRRLVQLTIDDEDDQRTDAMMDMLLAKKRSEDRRNWLQEKGDMAEIEV

Variants of: B1
Assay: barcode share on antibiotic plates over drug-free plates; higher = less susceptible
Settings: with Escherichia coli (laboratory strain); antibiotic: gentamicin; 2× MIC (MIC 0.45 µg/mL)
Procedure: (§1)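 A pool of E. coli strains, each edited to carry one amino-acid change in an essential protein, was grown for 48 h on minimal glucose agar with or without antibiotic; strain barcodes were sequenced; mean of two replicates.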

Variant | fold change of barcode share
MSANTEAQGSGRGLEAMKWVVVDALLLVAIVGNYLYRDIMLPLRALAVVILIAAAGGVALLTTKGKATVAFAREARTEVRKVIWPTRQETLHTTLIVAAVTAVMSLILWGLDGILVRLVSFITGLRF [VVDLV] | 0.0043 ± 0.0045

Variants of: B2
Assay: as above
Settings: with Escherichia coli (laboratory strain); antibiotic: gentamicin; 2× MIC (MIC 0.45 µg/mL)
Procedure: as §1

Variant | fold change of barcode share
L122P | < 0.0202
I116A | 0.00607 ± 0.0043
I116Q | 0.137 ± 0.19
V119D | < 0.0199
V119A | < 0.0121
L59D | 0.0284 ± 0.037
L59W | 0.0804 ± 0.11

Same assay, conditions: with Escherichia coli (laboratory strain); antibiotic: carbenicillin; 2× MIC (3.1 µg/mL)

Variant | fold change of barcode share
I116A | 0.371 ± 0.062
I116Q | 0.286 ± 0.12
V119A | 0.289 ± 0.032
L59D | 0.2359 ± 0.00088
L59W | 0.831 ± 0.018
